Results reported in PMC4336329 (PLoS ONE, 2015).
In all, about 310,000 compounds went through this assay and about 2,200 (0.71%) showed an effect of 50% or more. Effects have a minus sign here. The list shows a part of the results.

target: human ether-à-go-go-related gene (hERG) potassium channel (human, UniProt Q12809); assay: primary screen, population patch clamp on CHO cells stably expressing hERG
Sequence (Q12809 whole entry, looked up): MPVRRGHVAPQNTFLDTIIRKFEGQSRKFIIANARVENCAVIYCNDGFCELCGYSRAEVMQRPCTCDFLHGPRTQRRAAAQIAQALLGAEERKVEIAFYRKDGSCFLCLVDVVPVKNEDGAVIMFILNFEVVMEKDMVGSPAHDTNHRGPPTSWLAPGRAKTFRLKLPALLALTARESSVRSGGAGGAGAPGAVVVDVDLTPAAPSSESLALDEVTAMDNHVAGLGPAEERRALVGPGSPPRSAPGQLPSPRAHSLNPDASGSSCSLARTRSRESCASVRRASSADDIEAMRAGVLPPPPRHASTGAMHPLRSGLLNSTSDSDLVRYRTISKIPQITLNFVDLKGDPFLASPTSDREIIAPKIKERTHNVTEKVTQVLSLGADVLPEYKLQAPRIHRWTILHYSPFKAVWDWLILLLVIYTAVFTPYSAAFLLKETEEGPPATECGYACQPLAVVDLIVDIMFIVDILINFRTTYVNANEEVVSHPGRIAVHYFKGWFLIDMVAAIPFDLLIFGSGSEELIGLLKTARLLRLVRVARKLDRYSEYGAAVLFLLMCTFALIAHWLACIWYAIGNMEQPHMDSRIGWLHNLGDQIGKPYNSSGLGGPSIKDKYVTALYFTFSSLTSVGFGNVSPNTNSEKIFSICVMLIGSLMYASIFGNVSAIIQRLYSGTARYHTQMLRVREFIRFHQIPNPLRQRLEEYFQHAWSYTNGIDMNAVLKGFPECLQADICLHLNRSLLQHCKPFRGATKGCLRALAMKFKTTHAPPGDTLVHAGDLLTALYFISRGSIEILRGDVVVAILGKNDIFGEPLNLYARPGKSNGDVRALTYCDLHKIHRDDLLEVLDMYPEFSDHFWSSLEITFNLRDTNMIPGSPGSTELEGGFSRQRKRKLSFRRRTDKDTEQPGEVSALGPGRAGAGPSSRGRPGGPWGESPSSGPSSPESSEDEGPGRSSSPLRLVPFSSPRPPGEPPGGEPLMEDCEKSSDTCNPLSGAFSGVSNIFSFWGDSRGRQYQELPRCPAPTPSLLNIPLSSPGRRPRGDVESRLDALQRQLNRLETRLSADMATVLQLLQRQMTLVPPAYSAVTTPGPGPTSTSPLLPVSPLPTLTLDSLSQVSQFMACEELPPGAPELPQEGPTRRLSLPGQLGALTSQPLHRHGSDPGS

Row | SMILES | hERG current change (%, negative = inhibition) at 1uM
1 | O=C(O)c1ccccc1CSc1ccccn1 | 14%
2 | O=C1c2cccnc2C(=O)N1Cc1ccc(S(=O)(=O)N2CCN(c3ccc(Cl)cc3)CC2)cc1 | 12%
3 | CC(=O)C1=C(C)OC(N)=C(C#N)C1c1cccc2ccccc12 (stereo not drawn) | 4.99%
4 | COC(=O)C1=C(C(=O)OC)[C@@H]2Nc3ccccc3[C@@]23C[C@@H](C(=O)OC)N(C(=O)c2ccco2)C3=N1 | 6.27%
5 | COc1ccc(-c2nc(-c3ccccc3)ncc2S(C)(=O)=O)cc1 | 7.49%
6 | C[C@@H]1CN(Cc2nc(-c3cnccn3)no2)C[C@H](C)O1 | 5.17%
7 | O=C(COc1nncc2ccccc12)Nc1c(F)c(F)c(F)c(F)c1F | 10.3%
8 | Cn1c(=O)c2c(O)c([N+](=O)[O-])c(=O)n(C)c2n(C)c1=O | 13.3%
9 | Cn1cc(SCC(=O)NCc2ccc(F)cc2)c2ccccc21 | 6.71%
10 | Cc1occc1-c1nnc(SCC(=O)N2CCCC(C)C2)o1 (stereo not drawn) | 8.35%
11 | CC(=O)N(C(C)=O)c1c(N2CCOCC2)c2ccccc2oc1=O | 8.41%
12 | CC1CCN(S(=O)(=O)c2cccc(-c3nnc(-c4cccnc4)o3)c2)CC1 | -2.27%
13 | CCOc1cc(/C=C2\C(=O)N(c3nc(-c4ccc(Br)cc4)cs3)N=C2c2ccccc2)ccc1O | 9.46%
14 | O=C(NCCNC(=O)c1cc(OCC(F)(F)F)ccc1OCC(F)(F)F)Nc1ccc(Cl)cc1 | 2.41%
15 | CC(O)CC(=O)O (stereo not drawn) | 10.3%
16 | CC(=O)c1cnc(Nc2nc(C)c3cc(C)c(C)cc3n2)nc1C | 13.5%
17 | CCOc1ccc(OCC)c(NC(=O)c2nnn(CC(=O)Nc3cc(C)cc(C)c3)c2N)c1 | 18%
18 | COc1ccc(C2CC(c3ccc(OC)cc3OC(C)=O)=NN2C(=O)c2ccccc2)cc1 (stereo not drawn) | 2.33%
19 | O=C(O)CC12CC3CC(C1)CC(n1ncc(NCc4ccccc4Cl)c(Cl)c1=O)(C3)C2 | 4.29%
20 | NC(=O)c1nn(-c2ccc(Oc3ccccc3)cc2)c(=O)cc1O | 14.5%
21 | Cc1ccc2c(c1)nnn2C1CCN(C(=O)C23CC4CC(CC(C4)C2)C3)CC1 | 10.9%

Row | SMILES | hERG current change (%, negative = inhibition) at 1uM
22 | O=C(NCC1CCCN1S(=O)(=O)c1cccs1)c1ccccc1F (stereo not drawn) | 7.3%
23 | O=C(N/N=C/c1ccc2c(c1)OCO2)c1ccc(Cn2cc([N+](=O)[O-])cn2)o1 | 4.15%
24 | O=[N+]([O-])c1cc(C(F)(F)F)ccc1Cl | 15.2%
25 | CN(C)CCN(Cc1ccc(Cl)cc1)c1ccccn1.Cl | -57.1%
26 | Cc1ccc(S(=O)(=O)NC(=O)c2ccc(F)cc2)c(C)c1 | 14.3%
27 | COc1ccc(S(=O)(=O)O/N=C2\CCSc3ccc(C)cc32)cc1 | 5.08%
28 | Cc1cccc(NC(=O)CSCC(=O)NCc2cccc(C(F)(F)F)c2)c1 | 9.95%
29 | CSc1ccc(S(=O)(=O)N2CCC(C(=O)NCCN3CCOCC3)CC2)cc1 | 11%
30 | CCOC(=O)/C(=N/Nc1ccc(Cl)cc1)S(=O)(=O)c1ccc(Cl)cc1 | 8.34%
31 | COc1ccccc1NC(=O)CSc1nnc(CNC(=O)c2cccs2)o1 | 18.3%
32 | Cn1c(=O)c2c(nc(CN3CCN(CCO)CC3)n2Cc2ccccc2Cl)n(C)c1=O | 5.48%
33 | CC(C)(C)/C(O)=C(/C#N)c1nc2ccccc2[nH]1 | 11.3%
34 | CCOc1ncccc1C(=O)OCC(=O)c1cccc(Br)c1 | 11.4%
35 | COc1ccc(N2CCN(CCNC(=O)Nc3cc(Cl)ccc3Cl)CC2)cc1 | 17.5%
36 | COc1ccc(-c2c(C#N)c(SCC(=O)c3cc4ccccc4oc3=O)nc(C)c2C(=O)Nc2ccccc2)cc1 | 6.52%
37 | Cc1ccc2nsnc2c1S(=O)(=O)N(Cc1ccco1)Cc1cc2cccc(C)c2[nH]c1=O | 8.25%
38 | COc1cc(C(=O)OCC(=O)Nc2ccc(F)cc2F)cc(OC)c1OC | 2.68%
39 | CS(=O)(=O)c1ccccc1C(=O)Nc1nc2ccccc2[nH]1 | 8.41%
40 | Cc1ccc2nc(SCC(=O)c3ccc(O)cc3O)[nH]c2c1 | 3.14%
41 | O=C(c1ccc(F)cc1)N1CCCC(N2CCN(Cc3ccc4c(c3)OCO4)CC2)C1 (stereo not drawn) | 9.31%
42 | O=C(CSc1nc2ccc(Cl)cc2[nH]1)c1ccc2c(c1)OCO2 | 8.5%

Row | SMILES | hERG current change (%, negative = inhibition) at 1uM
43 | Fc1ccccc1N1CCN(C(c2ccncc2)c2nnnn2C2CCCC2)CC1 (stereo not drawn) | -0.501%
44 | COc1ccc(CNC(=O)COC(=O)CCS(=O)(=O)c2ccc(C)cc2)cc1OC | 25.1%
45 | Cc1ccc(S(=O)(=O)NC(CC(C)C)C(=O)NCc2ccco2)cc1 (stereo not drawn) | -5.98%
46 | Cc1cc(SCC(=O)Nc2ccc(O)cc2)n2ncc(-c3ccccc3)c2n1 | 14.5%
47 | CC1C(=O)N(Cc2ccc([N+](=O)[O-])cc2)c2ccccc2N1C(=O)C1CC1 (stereo not drawn) | -3.95%
48 | Cc1cc(Cl)ccc1OCC(=O)NN1C(=O)C2C3C=CC(C3)C2C1=O (stereo not drawn) | 12.2%
49 | O=C(c1ccc2[nH]c(=O)c(=O)[nH]c2c1)N1CCc2ccccc2C1 | 12.2%
50 | O=C(O)c1ccc(CNC(=O)c2ccccc2NC(=O)c2cccc([N+](=O)[O-])c2)cc1 | 13%
51 | CNC(=O)C1CCCN1S(=O)(=O)c1ccc(OC)cc1 (stereo not drawn) | 10.8%
52 | Cc1cc(C(=O)N/N=C2\CC(=O)CC(C)(C)C2)c2ccccc2n1 | 9.36%
53 | COc1ccccc1S(=O)(=O)Cc1ccc(C(=O)N2CCN(c3ccc(C)cc3)C(C)C2)o1 (stereo not drawn) | 0.218%
54 | Cn1ncc2c(Nc3ccc([N+](=O)[O-])cc3)nc(Cl)nc21 | 15.8%
55 | Cn1c(=O)c2c(nc(CN3CCc4ccccc4C3)n2CC(=O)c2ccccc2)n(C)c1=O | 5.11%
56 | COC(=O)CN(c1ccc2c(c1)OCO2)S(=O)(=O)c1c(C)[nH]c(=O)[nH]c1=O | 6.86%
57 | CC(=O)N(C)c1nc(N)n(-c2ccccc2)n1 | 4.73%
58 | CCOC(=O)c1c(N2CCN(c3ccccc3)CC2)cc(C)nc1C.O=C([O-])C(=O)[O-] | -69%
59 | COc1cccc(NC(=O)CN2CCN(c3ccc(F)cc3)CC2)c1 | 2.77%
60 | CCC(C)n1c(O)c(/C=N/N2CCOCC2)c(=O)[nH]c1=S (stereo not drawn) | -0.857%
61 | CCO/N=C(\C)c1c(O)c(CC)c(-c2ccccc2)n(-c2ccccc2)c1=O | 11.9%
62 | O=C1CCCN1CC(=O)N1CCCC(N2CCN(c3cccc(Cl)c3)CC2)C1 (stereo not drawn) | 15.7%
63 | CSc1ccc(COC(=O)CCS(=O)(=O)c2ccc(C)cc2)cc1 | -3.39%

Row | SMILES | hERG current change (%, negative = inhibition) at 1uM
64 | Cc1c(Br)c([N+](=O)[O-])nn1CC(=O)NCCc1c[nH]c2ccccc12 | 6.3%
65 | O=C(CCCN1C(=O)c2cccnc2C1=O)Nc1ccc(F)cc1Cl | 11.1%
66 | C[C@@]12C(=O)N(Cc3ccc(Cl)cc3)CC(=O)N1[C@H]1c3ccccc3OC[C@@H]1[C@@H]2c1ccccc1 | 14.7%
67 | CCC(=O)Nc1nnc(S(=O)(=O)N(CC(C)C)c2ccccc2)s1 | 11.1%
68 | COCCNC(=O)c1c[nH]c2ccc(OC)cc2c1=O | -5.88%
69 | Cc1ccc(C(=O)C(C)OC(=O)Cn2[nH]c(=O)c3ccccc3c2=O)cc1 (stereo not drawn) | 18.2%
70 | O=C(O)CCn1cc(C=C2C(=O)NC(=O)NC2=O)c(-c2ccc(Br)cc2)n1 | 12.8%
71 | O=C(OCCNc1nc(-c2ccccc2)nc2ccccc12)c1cccnc1 | -0.797%
72 | COc1cccc(CN(C)C(=O)c2ccc3c(=O)n4c(nc3c2)CCC4)c1OC | 8.59%
73 | CCOC(=O)c1c(N2C(=O)Nc3ccccc3N2O)sc2c1CCCC2 | 8.83%
74 | NC(=O)C1CCCN1 (stereo not drawn) | 12.5%
75 | COCCn1c(=O)[nH]c2cc(C(=O)NCCN3CCN(c4cccc(Cl)c4)CC3)ccc2c1=O | 11.3%
76 | Cc1nc2nc[nH]n2c(=O)c1NC(=O)c1cccc(OCC(C)C)c1 | 10.2%
77 | COc1ccc(C2c3sc(=O)[nH]c3SC3C(=O)N(c4ccccc4)C(=O)C32)cc1 (stereo not drawn) | 12.9%
78 | O=[N+]([O-])c1ccccc1OCCCOc1cccc2cccnc12 | 12.8%
79 | O=C(Nc1ccc(Cl)cc1)Nc1ccc(N2CCCC2)c(S(=O)(=O)Nc2ccccc2Cl)c1 | 6.93%
80 | O=C(COC(=O)c1cc[n+]([O-])cc1)Nc1cccc(Cl)c1Cl | 13.4%
81 | O=C1OCC=C1NNC(=O)c1cccnc1 | 5.09%
82 | Cn1c(Cc2ccc3c(c2)OCO3)nnc1SCC(=O)N1CCc2ccccc2C1 | 0.352%
83 | CC(=O)NCC(=O)N1CCCC(C(=O)c2ccc3c4c(cccc24)CC3)C1 (stereo not drawn) | 11.2%
84 | CCOC(=O)C1CCN(S(=O)(=O)c2cn(C)c(=O)n(C)c2=O)CC1 | 15%
